# Laboratory results taken from ChEMBL document CHEMBL4888484, “Replenishing the malaria drug discovery pipeline: Screening and hit evaluation of the MMV Hit Generation Library 1 (HGL1) against asexual blood stage Plasmodium falciparum ,using a nano luciferase reporter read-out” (2022).
# In all, about 4,800 compounds went through this assay and about 410 (8.5%) showed an effect of 50% or more. Some of the results follow.
# Tested on: Plasmodium falciparum
# Assay: Confirmatory screen in NF54 pLDH assay, in single point, at 2uM, 72h
# Type: functional, Erythrocyte
# Details: timepoint 72 hour
row,SMILES,% Inhibition [%]
1,Cc1cc(=O)n2ncc(C(=O)N3CCN(c4ccc(Cl)cc4)CC3)c2[nH]1,-22
2,O=C(N[C@@H]1CN(Cc2ccccn2)CCC[C@H]1O)c1ccc(OCc2ccccc2)cc1,42
3,Cc1cc(-c2nnc3n2CC(C)(C)CC3)c(C)o1,10
4,C[C@@H](CC(=O)O)N(C(N)=O)c1ccc(Nc2ccccc2)cc1,9
5,COc1cc(Cl)cc2c1OC=CC(C(=O)Nc1ncc(Cc3ccccc3)s1)=C2,4
6,Cc1ccc(S(=O)(=O)C[C@H](CN2CCN(C)CC2)N2CCN(C)CC2)cc1,-5
7,COc1ccc(CNC(=O)[C@H]2CN(C(=O)c3ccncc3)CC23CCCCC3)c(OC)c1,-9
8,c1ccc2cc(-c3ccc4ccccc4n3)ccc2c1,16
9,Cc1ccccc1S(=O)(=O)NCc1nnc(C(=O)Nc2ccc(F)cc2F)s1,11
10,CCc1nn(-c2ccccc2)c(Oc2ccccc2)c1CN(C[C@H]1CCCO1)C(=O)C(C)C,-24
11,O=C1N[C@H]2C[C@@H](C(=O)NC[C@H]3O[C@H](CCOc4cc(-c5ccccc5)ccc41)CC[C@@H]3O)N(Cc1ccc(Cl)c(F)c1)C2,-7
12,CC(=O)N1CCc2cc(NS(=O)(=O)c3cc(C)ccc3O)ccc21,-14
13,CCC(CC)(NCC(=O)NC1CC1)c1ccc(Cl)cc1,-1
14,Cn1cc(NC(=O)C(=O)NCC2(c3ccc(F)cc3F)CC2)cn1,8
15,CN(C)Cc1cn(C[C@H]2C[C@@H](NC(=O)Nc3ccc4c(c3)OCCO4)[C@H](O)[C@@H]2O)nn1,13
16,O=S(=O)(c1ccc(Br)cc1)N1CCOC12CCCCC2,-5
17,CC(=O)N[C@H](C(=O)N1CCCC1)C(C)C,4
18,Clc1ccc(NC2(c3noc([C@@H]4CCCCO4)n3)CCC2)cc1,5
19,CCc1c[nH]c(CNC(=O)C2(C(=O)NC3CC3)CCC2)n1,7
20,CC[C@H]1Cn2c(C(=O)NCc3ccc4c(c3)OCO4)cc3c(Cl)ccc(c32)O1,-10
21,CCOC(=O)N(c1ccccc1)[C@H]1CC(=O)N(c2ccccc2)C1=O,17
22,CCCc1ccc(OCCNC(=O)C2CCCC2)cc1,3
23,Cc1noc(C)c1CC(=O)N1C[C@H]2CCCC(=O)N(Cc3ccccc3)[C@H]2C1,10
24,Cc1nn(CC(=O)NC2CC3CCC(C2)N3C)c2nc(C3CC3)cc(C(F)(F)F)c12 (centres undefined),10
25,CCOC(=O)c1cc(NC(=O)C(C)(C)NC(=O)OC(C)(C)C)c(F)cc1C,8

row,SMILES,% Inhibition [%]
1,Cc1noc2ncc(C(=O)N3CCC[C@@H]3CC(C)(C)C)cc12,0
2,COc1cccc(C(=O)N2CCC3(CC2)C[C@@H](OCc2ccccc2)CCO3)c1,12
3,CCCOC(=O)Nc1ccc(Br)cc1Br,-2
4,CS(=O)(=O)N[C@H]1C[C@@H]2C[C@H]1N(C(=O)NCc1cccc(F)c1)C2,9
5,CCc1cc(C(=O)NCc2cn(C)nc2C)c2c(C3CC3)nn(-c3ccc(F)cc3)c2n1,10
6,Cc1ccc(-c2n[nH]c(NC(=O)Nc3ccc(F)c(S(=O)(=O)NC4CC4)c3)c2C)o1,-5
7,CCOc1ccc(C(=O)N2CCN(c3nnc4ccccn34)CC2)cc1,8
8,Brc1ccc(Oc2ncc(CN3CCOCC3)s2)cc1,7
9,O=C(COc1ccccc1Cl)Nc1ccc(C2(c3ccc(NC(=O)COc4ccccc4Cl)cc3)c3ccccc3-c3ccccc32)cc1,10
10,N#Cc1cncc(N2CCc3ccccc3C2)n1,6
11,O=C(c1ccc(Cl)c(Cl)c1)C1CCN(C(=O)[C@H]2CCn3cncc3C2)CC1,12
12,Cc1ccc(C)c(N2CCN(c3ncc4c(=O)n(-c5ccc6c(c5)OCO6)c(=O)[nH]c4n3)CC2)c1,3
13,CCc1nnc(NC(=O)C2CC2c2ccccc2)s1 (centres undefined),1
14,C[C@@H](c1ccccn1)N1CCC2(CCCCC2)CC1,-2
15,COc1ccc2c(/C=C/c3cc[n+](C)cc3)cn(Cc3ccccc3)c2c1,62
16,CCn1cc([C@@H](O)C(F)(F)F)c(C)n1,-6
17,C[C@H](C(=O)NCc1cc(F)cc(F)c1)C1CCOCC1,4
18,Cc1c(-c2ccc(F)cc2)[nH]c2ccc(CNc3nccc(N(C)C)n3)cc12,50
19,O=C(NCCN1CCCCC1)c1cn2ccnc(-c3ccccc3)c2n1,4
20,CCOc1ccc(-c2cc(NC(=O)c3cc(-c4cccnc4)nc4ccccc34)on2)cc1OCC,98
21,C[C@H](NC(=O)c1ccc(Cl)o1)c1nnc2n1CCCCC2,0
22,COc1ccc(CC(=O)Nc2cc(C)n(-c3cccc(Cl)c3)n2)cc1,93
23,COc1ccc(NC(=O)[C@@H](c2ccc(OC)c(OC)c2)N(Cc2ccccc2)C(=O)Cn2nnc3ccccc32)cc1,-7
24,CCCS(=O)(=O)NC1CCC2(CC1)OCCO2,-18
25,O[C@H]1CNCC[C@@H]1Nc1cc(-c2ccccc2)nc2ccccc12,76

row,SMILES,% Inhibition [%]
1,Cc1ccnc(N(C(=O)c2cc(Cl)ccc2Cl)C(=O)c2cc(Cl)ccc2Cl)c1,-11
2,CCN(CC(=O)Nc1ccccc1OC)C(=O)c1ccc(S(=O)(=O)N2CCOCC2)cc1,7
3,O=c1cc(COc2ccc(F)c(F)c2)nc2sccn12,9
4,CNC(=O)[C@@H]1C[C@H](NCc2cc(OC)c(OC)c(OC)c2)CN1CC(c1ccccc1)c1ccccc1,50
5,Cc1cccc(Cn2ccc(-c3cccc(OCc4ccc(Cl)cc4Cl)c3)n2)c1,-7
6,Cc1cc2nc(C)c3c(n2n1)N(Cc1ccccc1Cl)CC3,4
7,CCOC(=O)Nc1nc(-c2ccccc2)c(C(=O)c2ccc(S(C)(=O)=O)cc2)s1,11
8,Cc1cnc(CC[C@H]2CCCN2C(=O)CCCc2ccccc2)n1C,10
9,CCCC1(c2ccncc2)CC(C)OC1=O (centres undefined),10
10,COc1nc(NC2CCS(=O)(=O)CC2)ncc1F,77
11,CC1(C)COCCN1C(=O)Cc1cnn(-c2ccccc2)n1,5
12,Cc1noc(NCc2ccc(Cl)cc2)n1,23
13,Cc1nnc(-c2ccc3ccn(CC(=O)Nc4ccc(F)c(Cl)c4)c3c2)o1,96
14,COc1ccc(C)cc1NC(=O)C[C@H]1CCN(S(C)(=O)=O)C1,9
15,CC(C)(C)OC(=O)CN(c1cc(F)cc(F)c1)S(=O)(=O)c1ccc2nncn2c1,-2
16,Cc1noc(C)c1NS(=O)(=O)c1ccc2c(c1)OCCCO2,0
17,CC1(C)NC(=O)N(CNc2ccc(Br)cc2)C1=O,-20
18,CC(C)CC(=O)Nc1ccc2c(c1)C(N1CCC(C)CC1)=Nc1ccccc1O2,-17
19,Nc1c(-c2ccccc2)nsc1C(=O)NCCc1cccs1,7
20,Cc1c(C(c2ccc(-c3ccccc3Cl)o2)c2c(C)n(C)n(-c3ccccc3)c2=O)c(=O)n(-c2ccccc2)n1C,5
21,Cc1cc(NC(=O)[C@@H](c2ccccc2)N2CCCCC2=O)sn1,1
22,CCC(C(=O)Nc1ccc2c(c1)CN(CCc1ccc(OC)c(OC)c1)C(=O)C(C)O2)c1ccccc1 (centres undefined),100
23,O=C(NCc1ccccn1)c1cc(C(F)(F)F)cc(C(=O)Nc2ccccc2)n1,12
24,O=C(Nc1ccncc1)c1ccc2ccccc2n1,18
25,COc1cc(CNCCCN2CCOCC2)ccc1OCc1ccc(Cl)cc1,40

row,SMILES,% Inhibition [%]
1,CC(C)(C)n1ncnc1NC(=O)c1cc(Cl)cc(Cl)c1,23
2,Cc1cc(C)n(-c2ccc(-c3nnc(-c4cc5cc(Oc6ccccc6)ccc5[nH]4)s3)cc2)n1,6
3,Cc1ccc(NC(=O)c2cc[nH]n2)c(C)c1,-23
4,Cc1c(-c2nn(-c3nc(C4CC4)cc(C(F)(F)F)n3)c(-c3cnn(C)c3C)c2Cl)cnn1C,14
5,Cn1c(CN2CCN(c3ccccc3)CC2)c(C#N)c2ccccc21,-8
6,Cc1nc(C(=O)Nc2[nH]c(=O)ncc2F)c(-c2ccccc2)o1,70
7,Cc1cc(-c2ccccc2)cc(-c2ccccc2)c1-c1cc(-c2ccccc2)cc(-c2ccccc2)n1,-3
8,Nc1nonc1C(=O)N1CCN(C(=O)Nc2ccc3c(c2)OCO3)CC1,-12
9,O=C(N[C@@H](CCO)c1ccco1)c1cc(Cn2cccn2)on1,-23
10,Cn1ccnc1CN1CCC[C@@](O)(CNS(=O)(=O)c2cccs2)CC1,-12
11,COc1ccc(CC(=O)NCCn2c(C(F)(F)F)nc3ccccc32)cc1,9
12,CCS(=O)(=O)C1CN(C(=O)c2ccnn2C2CCCC2)C1,-2
13,CCc1ccc(C(NC(=O)C2CCNC2)C(C)(C)C)o1 (centres undefined),-8
14,NS(=O)(=O)N[C@H]1CCCc2sc(Cl)cc21,9
15,O=C(NCCCN1CCOCC1)C1C2CCCC21 (centres undefined),8
16,COc1ccc(CCN2C(=O)CC[C@H]2c2cn(C)c3ccccc23)cc1OC,5
17,COc1cc(CNCc2ccco2)ccc1OCc1cccc(C)c1,3
18,Cc1nnc(-c2ccco2)c2cn(-c3ccc(Cl)cc3)nc12,-11
19,Cc1cnc(C2CCC2)n1CCNS(=O)(=O)c1ccccc1,2
20,O=C(Nc1ccc(F)cc1)c1c(-c2ccc(Cl)cc2)nc2n1CCS2(=O)=O,-4
21,NC(=O)C1CCN(C(=O)NC2CCCCCC2)CC1,-19
22,O=C(CCn1nc(-c2cccc(Cl)c2)ccc1=O)NCc1ccc(F)cc1F,8
23,CC1CN(C(=O)C(C(C)C)N2CC(C)OC(C)C2)CCO1 (centres undefined),-12
24,O=C(N[C@H](c1ccccc1)C1CC1)C(c1ccccc1)c1ccccc1,11
